The list shows a part of the results. At the low end of the ranking the order means little.

The assay addresses T1, GST-Rok-C97-191 (UniProt O34857).
T1 sequence: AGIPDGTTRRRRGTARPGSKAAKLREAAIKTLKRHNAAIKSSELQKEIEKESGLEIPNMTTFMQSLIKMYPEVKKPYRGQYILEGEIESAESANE
Put plainly: protein binding microarray.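 Further: rank score from −0.5 (least bound) to 0.5 (best bound).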 To be noted: Rok is a gene silencer of Bacillus subtilis; high values mean tight binding; most listed sequences are background and not binding sites; double strand, one strand shown.
For ATCTGTCC, the binding signal is 0.0714 E-score.
With TGACCTAA the figure was -0.00994 E-score; with CGCCCTTC, -0.312 E-score; with GTACACGA, 0.0762 E-score.
The sequence GTATGGTA displayed a binding signal of 0.238 E-score.
AAGGCGGA: the binding signal is -0.299 E-score.
Next, CAAAATGG: -0.0352 E-score; CCGCGACG: -0.218 E-score; CGAGCGCG: -0.0947 E-score.
With ACCGCGCT the figure was -0.0352 E-score.
With GAAATCAA the figure was 0.139 E-score; with ACCTCCCC, -0.292 E-score.
The sequence AGTCGGAG showed a binding signal of -0.182 E-score.
The sequence ACAACTGT returned a binding signal of 0.0673 E-score.
Next, CAAGAAAA: 0.0292 E-score; GGGGGTAA: -0.188 E-score.
Next, CGTGGATC: -0.192 E-score.
For the sequence GAATTAGC, the binding signal stood at 0.123 E-score.
Next, AAGAGATT: -0.055 E-score; GAGCGTAA: 0.065 E-score; ACTAGGGA: 0.0211 E-score.
Next, TCCGAGGA: -0.172 E-score; CCATCTAC: 0.213 E-score.
With AAACCCCT the figure was -0.251 E-score; with ACGTTTAG, 0.12 E-score.
With AACCGGCC, the binding signal is -0.171 E-score.
With TCCCGACA the figure was -0.0467 E-score; with ATGAACGA, -0.0028 E-score; with CTACGTCA, -0.162 E-score.
Next, AAGGTTAT: -0.0408 E-score; ATCAGGAT: -0.169 E-score.
ATGCCACA showed a binding signal of -0.0438 E-score.
With ATGAACTC the figure was -0.191 E-score; with CTGAGCCC, -0.236 E-score.
With AGTCCGTC the figure was -0.163 E-score.
With CTCAGTGC the figure was -0.103 E-score; with ATAAACGA, 0.114 E-score; with GGTAGAAA, 0.465 E-score.
For GACCTCTA, the binding signal is -0.236 E-score.
With AGGAACAG the figure was -0.0365 E-score.
With TACGTAGA the figure was 0.296 E-score; with CGACGGCA, -0.168 E-score; with GGGCTTCA, -0.173 E-score.
Consider AACGGTCC, for which the binding signal was -0.145 E-score.
Next, CACATTCA: -0.0844 E-score; TAACCTAA: 0.0496 E-score; ACGTTTCG: -0.085 E-score.
With ATTCGCGG the figure was -0.0504 E-score.
With CAGCACCA the figure was -0.164 E-score.
The sequence AGGAATAT showed a binding signal of 0.14 E-score.
Next, TTTTAAAA: 0.148 E-score.
Next, AAACATAG: 0.192 E-score; GGTCTTGA: -0.234 E-score; ATTCGTGC: 0.0911 E-score.
In turn, GATACAAA returned a binding signal of 0.3 E-score.
Next, ATATCGCA: 0.144 E-score; AGCCTCCG: -0.336 E-score; AGCGAACA: -0.011 E-score.
Next, AGTACTTA: 0.355 E-score; GTCTGAGA: -0.0892 E-score.
Sequence CGAAAGGC yielded a binding signal of -0.176 E-score.
Next, GACAAATA: 0.111 E-score; CCCTATAC: 0.104 E-score.
Next, AAGGATAT: 0.0361 E-score.
Next, CTATCTGC: -0.128 E-score; CACCGCTA: -0.0974 E-score.
Regarding AATCTCTA, the binding signal worked out at 0.185 E-score.
As to ACGCTATA, the binding signal was determined as 0.0732 E-score.
With ACTTTGCC the figure was -0.059 E-score; with ACCGCGTA, -0.125 E-score.
Next, CATTATTA: 0.27 E-score; GAAAGGTC: -0.194 E-score; CACATGAG: 0.125 E-score.
In the case of CACCTACG, the binding signal came to 0.0265 E-score.
Next, CAGGTTTC: -0.126 E-score; CAAACTAG: 0.287 E-score.
With CGGGGACC the figure was -0.403 E-score.
Next, CATCTGTA: 0.195 E-score; AAATTGGC: 0.0866 E-score.
Take CTGGGGCC: the binding signal was -0.271 E-score.
With AAGCAAAA the figure was 0.11 E-score; with GGAACACA, -0.122 E-score; with GACTTACA, -0.108 E-score.
TAATAATA displayed a binding signal of 0.424 E-score.
With CCCTATAG the figure was -0.2 E-score; with ACAGTAGT, 0.258 E-score; with CCTCACGA, -0.145 E-score.
With CCGTTATC the figure was 0.0677 E-score.
With GACACTCA the figure was -0.00184 E-score; with GGAAAGTA, 0.298 E-score.
Turning to CACCAGTA, the binding signal was 0.00682 E-score.
Next, CGAAGCAC: -0.116 E-score; GAGGTTCA: -0.344 E-score.
Regarding CGGCCTCA, the binding signal was -0.148 E-score.
With AAGGTAGT the figure was 0.33 E-score; with ACCAGTTA, 0.105 E-score; with ATTCAATA, 0.0997 E-score.
Next, TCTGATAA: 0.0829 E-score; AGAGACCC: -0.126 E-score; ATGGACAT: 0.0565 E-score.
Next, AAACAAGC: -0.101 E-score; CACGCAAC: -0.0353 E-score; CCACCAAG: -0.201 E-score.
The sequence ATTTCCTG displayed a binding signal of 0.203 E-score.
With GTCAGGTA the figure was 0.0855 E-score.
With CCCACAGC the figure was -0.194 E-score; with ATTGAAGA, 0.0335 E-score.
Next, ACAAAAGT: 0.225 E-score; AAGTGTCA: -0.206 E-score; AAATGAAC: 0.0632 E-score.
The sequence CTACTCGC came in with a binding signal of 0.0199 E-score.
For CGCTATAG, the binding signal is 0.161 E-score.
Next, AACCTGCA: -0.141 E-score; ACATAAGC: 0.0497 E-score.
Next, GCATTTAC: 0.159 E-score; AGATGTGC: 0.0955 E-score.
Next, ATTCCTCG: 0.0392 E-score.
Take CGATCATC: the binding signal is -0.173 E-score.
With AGTCACAC the figure was -0.0434 E-score.
Next, AGTGTCAA: 0.124 E-score; CGTCATAG: -0.029 E-score; AGTCCTAG: -0.104 E-score.
In the case of CCCGGGAA, the binding signal is -0.0921 E-score.
Next, ATCCGCTG: 0.0373 E-score.
With AAGTATCG the figure was 0.117 E-score; with ATTATCAA, 0.242 E-score; with ACGCAGGG, -0.121 E-score.
As for GAACGCAC, the binding signal was -0.0666 E-score.
With ATCGGATA the figure was 0.14 E-score; with AAGTCCGC, -0.00103 E-score.
Sequence GGGAGGAC showed a binding signal of -0.256 E-score.
With AATCCACT the figure was -0.106 E-score; with AGTACTGA, 0.234 E-score; with CCTGAGTC, -0.225 E-score.
With CAGAAGCA the figure was -0.0414 E-score.
With CGCTCATC the figure was -0.334 E-score; with CCCTCCTC, -0.342 E-score.
Take CACTTCGG: the binding signal was -0.259 E-score.
Next, ACGCTCGG: -0.182 E-score; GTCCAGCA: -0.0608 E-score.
For the sequence AGCCCTGC, the binding signal was -0.217 E-score.
With GACCCGCA the figure was -0.105 E-score; with AACAGGAG, -0.0395 E-score; with ATGCAAAG, -0.14 E-score.
Next, CGATCCCA: -0.00235 E-score; GTAGAAAC: 0.435 E-score.
On to TACCTACA, for which the binding signal was 0.269 E-score.
Consider TCCAAGCA, for which the binding signal is -0.0894 E-score.
Next, AGCCCAAT: -0.00808 E-score; ATAAGACC: -0.0211 E-score; TATGTGAA: 0.236 E-score.
With AATGGCAC the figure was -0.0703 E-score.
Next, ACAAGGTA: 0.102 E-score; CACAGGTA: -0.0357 E-score; CGCCAACC: -0.101 E-score.
For the sequence ACCTAGCT, the binding signal is -0.0218 E-score.
Turning to GACTGGCC, the binding signal was -0.129 E-score.
With AACAGTGA the figure was 0.0105 E-score.
Next, ATCAGCTG: 0.00405 E-score; CAGTTCGA: 0.0164 E-score; CCTTTGAC: -0.154 E-score.
GCTCGTCC displayed a binding signal of -0.393 E-score.
Next, AGGGAGGC: -0.385 E-score.
In the case of CGGACAAG, the binding signal is -0.129 E-score.
Sequence AATCCAAG showed a binding signal of 0.186 E-score.
Turning to CCTGAAAG, the binding signal was -0.277 E-score.
Turning to CGGCAAGC, the binding signal is -0.124 E-score.
ACGCGGTA: the binding signal was -0.00743 E-score.
With ACTAATCG the figure was 0.147 E-score.
The sequence CTGTTTCC returned a binding signal of -0.0324 E-score.
The sequence TGACCCAA came in with a binding signal of -0.13 E-score.
Next, GATATATA: 0.358 E-score.

The values above are taken from article PMC6212790.
